From PubChem BioAssay AID1468 (National Center for Advancing Translational Sciences (NCATS), 2008)
“And” between values parts separate entries of the source, which are not always exact repeats. Equal entries are not always repeated. About 1,100 (0.39%) of roughly 280,000 compounds were called active. Inconclusive means that the source gave no clear call. Such entries were picked first, then a sample of the others. The call rests on the fitted dose curve; in most records, active means well fitted inhibition curve with a large enough effect; inconclusive means small, poorly fitted or top-dose-only effect, or effect the other way; inactive means flat fitted curve, though single readings scatter. Potencies beside an inconclusive call are fits to weak or partial responses and may not hold up.

biological target: Microtubule-associated protein tau (Homo sapiens) (UniProt P10636); assay: qHTS for Inhibitors of Tau Fibril Formation, Fluorescence Polarization; conditions: K18 P301L tau heparin fibrillization, Alexa594 FP, 6 h; series mostly up to 57.7 µM; further: nearly all actives have a fitted effect of over 55% in size
Summary of the method: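 Compound effects on tau fibrillization are measured by Alexa 594 fluorescence polarization (ex 555, em 632 nm). K18 P301L tau is used at 15 uM with 0.24 uM labeled tracer, and 20 uM heparin induces aggregation over 6 hr at 37 C.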
Potency means the concentration at half of the fitted maximal effect; tags describe the fitted curve by direction and shape.

Sequence of UniProt P10636 (P10636 whole entry, looked up): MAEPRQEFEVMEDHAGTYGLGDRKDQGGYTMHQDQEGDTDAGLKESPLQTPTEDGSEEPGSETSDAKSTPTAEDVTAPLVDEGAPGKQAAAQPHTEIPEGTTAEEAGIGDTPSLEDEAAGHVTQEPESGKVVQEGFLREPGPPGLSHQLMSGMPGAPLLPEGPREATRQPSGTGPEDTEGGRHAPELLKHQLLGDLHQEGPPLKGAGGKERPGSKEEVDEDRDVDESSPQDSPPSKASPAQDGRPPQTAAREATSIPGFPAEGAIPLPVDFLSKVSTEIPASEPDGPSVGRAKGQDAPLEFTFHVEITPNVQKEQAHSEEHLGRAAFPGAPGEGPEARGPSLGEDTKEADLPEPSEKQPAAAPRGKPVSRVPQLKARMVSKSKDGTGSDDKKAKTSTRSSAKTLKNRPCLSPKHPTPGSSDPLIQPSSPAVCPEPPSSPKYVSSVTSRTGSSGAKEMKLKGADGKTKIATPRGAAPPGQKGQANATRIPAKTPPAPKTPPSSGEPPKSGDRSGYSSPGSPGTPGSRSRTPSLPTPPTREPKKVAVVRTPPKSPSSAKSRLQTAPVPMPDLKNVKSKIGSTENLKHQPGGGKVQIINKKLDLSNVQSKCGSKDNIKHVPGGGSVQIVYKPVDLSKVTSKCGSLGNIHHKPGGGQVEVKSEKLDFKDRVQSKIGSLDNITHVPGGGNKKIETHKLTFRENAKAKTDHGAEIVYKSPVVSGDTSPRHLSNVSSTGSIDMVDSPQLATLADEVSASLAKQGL

Row | SMILES | Potency
1 | COc1ccc(N2CCN(C(=O)c3cccc(Cn4cc(Cl)cn4)c3)CC2)cc1 | inactive
2 | O=C(Nc1ccc2c(c1)OCCO2)C(=S)NCc1ccccc1 | inconclusive: 20 µM [inhibitor, single point]
3 | CC(C)(C)c1ccc(OCCC(=O)Nc2cccc(S(=O)(=O)N3CCCCC3)c2)cc1 | inconclusive: 25.1 µM [inhibitor, partial curve, poor fit]
4 | O=C(Nc1cccc(C(F)(F)F)c1)C(Sc1ncnc2ccccc12)c1ccccc1 (stereo unspecified) | inconclusive: 22.4 µM [inhibitor, partial curve]
5 | COc1cc(/C=N/NC(=O)CC2(C)OCCCO2)ccc1OCc1ccccc1 | inactive
6 | O=C(CCC(=O)N1Cc2ccccc2Oc2ncccc21)NCc1ccccc1Cl | inactive
7 | COc1cccc(-c2nn(-c3ccccc3)cc2CN(C)Cc2ccno2)c1 | inconclusive: 0.355 µM [inhibitor, full curve]
8 | COc1ccc(CN2C=C3C(=O)C(C)(OC(=O)C4CCCC4)C(=O)C=C3C=C2c2ccsc2)cc1 (stereo unspecified) | inconclusive: 35.5 µM [inhibitor, single point]
9 | CCC(c1nnnn1CCc1ccccc1)N(Cc1ccco1)Cc1cc2cc(C)cc(C)c2[nH]c1=O (stereo unspecified) | inactive
10 | C/C(=N\Nc1nc2ccccc2s1)c1ccc(Br)s1 | inconclusive: 1.41 µM [activator, full curve, poor fit]
11 | COc1cc(CNc2nc(C)c([N+](=O)[O-])c(C)c2C#N)cc(OC)c1 | inconclusive: 3.16 µM [inhibitor, single point]
12 | CCOc1ccc(NC(=O)CSc2nnc(NC(=O)Nc3ccccc3)s2)cc1 | inconclusive: 20 µM [inhibitor, partial curve, poor fit]
13 | C=CCSc1nc2c(c(=O)[nH]c(=O)n2C)n1Cc1ccc(C)cc1 | inactive
14 | N=c1c[n+](N2CCOCC2)[n-]o1 | inconclusive: 15.8 µM [inhibitor, partial curve] and inconclusive: 11.2 µM [inhibitor, partial curve]
15 | NS(=O)(=O)c1ccc(NC(=S)Nc2ccc(Br)c(Cl)c2)cc1 | inconclusive: 31.6 µM [inhibitor, partial curve]
16 | O=C(OCC1OC(OC(=O)c2cc(O)c(O)c(OC(=O)c3cc(O)c(O)c(O)c3)c2)[C@@H](OC(=O)c2cc(O)c(O)c(OC(=O)c3cc(O)c(O)c(O)c3)c2)C(OC(=O)c2cc(O)c(O)c(OC(=O)c3cc(O)c(O)c(O)c3)c2)C1OC(=O)c1cc(O)c(O)c(OC(=O)c2cc(O)c(O)c(O)c2)c1)c1cc(O)c(O)c(OC(=O)c2cc(O)c(O)c(O)c2)c1 (stereo partly specified) | inconclusive: 2.82 µM [inhibitor, full curve]
17 | CC(=O)c1ccc(NS(=O)(=O)c2ccc3[nH]c4c(c3c2)CCCCCC4)cc1 | inconclusive: 20 µM [inhibitor, single point]
18 | CN1CCN(CCCN2c3ccccc3Sc3ccc(Cl)cc32)CC1 | inactive
19 | Clc1ccc2nc(-c3ccccc3)[nH]c2c1 | inconclusive: 1.12 µM [inhibitor, full curve, poor fit]
20 | Cc1cc2oc(C(=O)Nc3nc(-c4ccccc4)ns3)c(C)c2cc1Cl | inconclusive: 22.4 µM [inhibitor, single point]
21 | O=C(Nc1ccc2c(c1)OCCO2)c1ccc2ccccc2n1 | inactive

Row | SMILES | Potency
22 | CCOC(=O)c1cccc(NC(=O)c2cc3c(Cl)nc4ccc(C)cc4c3s2)c1 | inconclusive: 35.5 µM [inhibitor, single point]
23 | COc1ccc(-n2cc(-c3ccccc3)c3c(SC(C)C(C)=O)ncnc32)cc1 (stereo unspecified) | inconclusive: 7.08 µM [inhibitor, full curve]
24 | Cc1cc(NC(=O)Cc2csc(-c3ccccc3)n2)ccc1Br | inconclusive: 8.91 µM [inhibitor, partial curve]
25 | CCc1ccc(NS(=O)(=O)c2ccc3[nH]cc(C(=O)NC4CCCC4)c(=O)c3c2)cc1 | active: 11.2 µM
26 | CC(C)c1ccc(NC(=O)C2CCCN(S(=O)(=O)c3ccc(Br)s3)C2)cc1 (stereo unspecified) | inconclusive: 44.7 µM [inhibitor, single point]
27 | COc1ccc(CNc2nc3c(S(=O)(=O)c4ccccc4)nnn3c3ccc(Cl)cc23)cc1 | inconclusive: 10 µM [inhibitor, partial curve]
28 | CC(=O)N(Cc1cc(=O)[nH]c2ccccc12)c1cccc(C)c1 | inconclusive: 17.8 µM [inhibitor, single point]
29 | Cc1cc(C)n(-c2nc3ccccc3nc2Nc2cccc(C(F)(F)F)c2)n1 | inconclusive: 31.6 µM [inhibitor, single point]
30 | O=C(CSc1nnc(-c2n[nH]c3ccccc23)n1-c1ccccc1)Nc1ccccc1Cl | inconclusive: 20 µM [inhibitor, single point]
31 | O=C1CCSC2(C(=O)N(Cc3ccc(F)cc3)c3ccccc32)N1c1ccccc1 (stereo unspecified) | inconclusive: 25.1 µM [inhibitor, single point]
32 | Cc1cc(/C=C(\C#N)C(=O)O)c(C)n1CC1CCCO1 (stereo unspecified) | inconclusive: 35.5 µM [inhibitor, single point]
33 | Cc1cc(C)n(-c2nnc(C)n2/N=C/c2cc(Br)ccc2OCc2ccccc2)n1 | inactive
34 | CC(=O)Oc1ccc(NC(=O)Cc2ccccc2)c(C(=O)O)c1 | inactive
35 | CC(=O)c1cccc(NC(=O)c2oc(C)nc2C)c1 | inactive
36 | CCOc1cc(/C=N/NC(N)=O)cc(Br)c1OCC(=O)Nc1ccccc1C | inconclusive: 5.62 µM [inhibitor, full curve]
37 | COc1cccc(CNc2ncnc3onc(-c4ccc(F)cc4)c23)c1 | inconclusive: 44.7 µM [inhibitor, single point]
38 | CSc1nnc(-c2cc(C)on2)n1-c1ccccc1 | inconclusive: 0.0251 µM [inhibitor, full curve, poor fit]
39 | O=C(Cc1ccccc1)N/N=C/c1cccs1 | inactive
40 | CC(=O)Nc1nonc1-c1nnc(SCC(=O)Nc2cc(C)ccc2C)n1-c1ccccc1 | inactive
41 | c1cnc2ccc3ncccc3c2c1 | inactive
